Laboratory results as given in PubChem BioAssay AID624296 (National Center for Advancing Translational Sciences (NCATS), 2012).
Out of some 350,000 compounds screened, about 9,900 (2.8%) were called active. Inconclusive means that the source gave no clear call. Such entries were picked first, then a sample of the others. The call rests on the fitted dose curve; in most records, active means well fitted activation curve with a large enough effect; inconclusive means small, poorly fitted or top-dose-only effect; inactive means no such curve, though single readings can be large or run the other way. No potency is given beside an inconclusive call; the fits are too rough.

test: A quantitative high throughput screen for small molecules that induce DNA re-replication in MCF 10a normal breast cells.; further: nearly all actives have a fitted effect of over 50% in size; on activity, positive = re-replication: % of control where 0% means no effect; details: MCF 10A DNA re-replication, Hoechst nuclear intensity, 48 h; activity, positive = re-replication: at 46.1 µM (top of the series)
Potency means the concentration at half of the fitted maximal effect; tags describe the fitted curve by direction and shape.

Row | Compound | activity, positive = re-replication | Potency
1 | Cc1ncc(COP(=O)(O)O)c(C=O)c1O | inactive: 3.3% | –
2 | Cc1cc2nc(/C(C#N)=C/c3ccncc3)[nH]c2cc1C | – | active: 23.1 µM
3 | O=C(CN(c1ccc(Cl)cc1)S(=O)(=O)c1ccc(Cl)c([N+](=O)[O-])c1)NCCc1ccc(F)cc1 | – | active: 3.66 µM
4 | O=C(CSCC(=O)Nc1nccs1)Nc1ccccc1 | inactive: 0.916% | –
5 | CN(C(=O)COC(=O)C1CCN(S(=O)(=O)c2ccc(Cl)cc2)CC1)C1CCS(=O)(=O)C1 (centres undefined) | – | inconclusive [activator, full curve]
6 | Cc1ccc(C(=O)CCS(=O)(=O)c2ccc(F)cc2)cc1 | – | inconclusive [activator, single point]
7 | Cc1ccc(/C=C2\SC(=S)N(CC3CCCO3)C2=O)o1 (centres undefined) | – | inconclusive [activator, partial curve, poor fit]
8 | CCOC(=O)CSCC(NC(=O)OC(C)(C)C)C(=O)OCC (centres undefined) | inactive: 5.67% | –
9 | CC(C)Oc1ccc(C(CCNCc2ccc(O)cc2)c2ccccc2)cc1 (centres undefined) | – | inconclusive [activator, single point]
10 | Cn1c(O)c(N=NC(=O)CNC(=O)c2ccccc2)c2cc(Br)ccc21 | – | inconclusive [activator, partial curve, poor fit]
11 | Cc1cc(C)c(NC(=O)CNC(=O)c2ccc(-n3cncn3)c([N+](=O)[O-])c2)c(C)c1 | inactive: 2.63% | –
12 | COc1ccc(CN2CCC(=O)N(CCO)CC2)cc1OC | inactive: -2% | –
13 | O=C(CN1CCCCC1)Nc1cccc(Cl)c1 | – | inconclusive [activator, partial curve, poor fit]
14 | CN1C[C@@H]2[C@@H]3C(=O)N(Cc4ccccc4)C(=O)[C@@H]3[C@](C)(C1=O)N2C(=O)c1ccc(Br)cc1 | inactive: -0.793% | –
15 | CCCC(=O)NC(NC(=S)Nc1ccc(N=Nc2ccccc2)cc1)C(Cl)(Cl)Cl (centres undefined) | – | active: 13 µM
16 | CCOc1ccc(N/C(SC)=C(/C#N)C(N)=O)cc1 | – | inconclusive [activator, single point]
17 | COc1ccc(-c2cc(-c3ccccc3O)[nH]n2)cc1OC | – | inconclusive [activator, single point]
18 | C(=N\N1CCN(C2c3ccccc3-c3ccccc32)CC1)/c1cccnc1 | – | inconclusive [activator, single point]
19 | Cc1ccc(S(=O)(=O)Nc2cc(=O)[nH]c(SCC(=O)Nc3ccccc3Cl)n2)cc1 | – | inconclusive [activator, single point]
20 | Cc1cc(NC(=O)CCSc2nc(-c3ccco3)cc(C(F)(F)F)n2)no1 | inactive: -10.9% | –
21 | CCN(CC)CCCNC(=S)N1CCN(c2nc(-c3ccccc3)cs2)CC1 | – | inconclusive [activator, single point]
22 | C/C(CC(=O)Nc1ccc(N(C)C)cc1)=N\NC(=O)c1ccccc1O | – | inconclusive [activator, single point]

Row | Compound | activity, positive = re-replication | Potency
23 | CCOC(=O)c1c(-c2ccccc2)csc1NC(=O)CSc1nnc(C)s1 | – | inconclusive [activator, single point]
24 | CCOCCCn1c(C)nc2c(c1=O)c1nc3ccccc3nc1n2CCC1=CCCCC1 | – | inconclusive [activator, single point]
25 | O=C(CCN1C(=O)/C(=C\c2ccccc2F)SC1=S)N1CCCCC1 | – | inconclusive [activator, partial curve, poor fit]
26 | O=C(/C=C/c1ccco1)Nc1ccc2nc3n(c(=O)c2c1)CCCC3 | – | inconclusive [activator, full curve]
27 | CC(Sc1nc2ccccc2s1)C(=O)NC1CCCc2ccccc21 (centres undefined) | – | inconclusive [activator, partial curve, poor fit]
28 | Cc1ccc(NC(=S)N2CCC(NC(=O)c3ccc(C)cc3)CC2)cc1 | – | inconclusive [activator, partial curve, poor fit]
29 | COC(=O)c1ccc(OC(=O)CCN2C(=O)C3CCCCC3C2=O)cc1 (centres undefined) | – | inconclusive [activator, single point]
30 | COc1ccc(-c2cc(C(=O)Nc3c(C)nn(Cc4ccccc4Cl)c3C)no2)cc1 | – | active: 10.3 µM
31 | Cc1ccc(-c2cc(C(=O)OCC(=O)Nc3ncc(C(F)(F)F)cc3Cl)c3ccccc3n2)cc1 | – | inconclusive [activator, partial curve, poor fit]
32 | CN(C)CCCNC(=O)C[C@H]1C[C@H](C(=O)N2CCCCC2)[C@@]2(C)c3[nH]c4cc(-c5ccco5)ccc4c3CCN2C1=O | – | inconclusive [activator, full curve, poor fit]
33 | C=CCN(c1ccccc1Cl)S(=O)(=O)c1cccc(C(=O)OCC(=O)N(C)C2CCS(=O)(=O)C2)c1 (centres undefined) | – | inconclusive [activator, partial curve, poor fit]
34 | O=c1oc2ccccc2c(Nc2ccccc2)c1[N+](=O)[O-] | – | inconclusive [activator, single point]
35 | CCc1cc(-c2n[nH]c(C)c2-c2nc3ccccc3n2C)c(O)cc1O | – | inconclusive [activator, single point]
36 | CCCS(=O)(=O)N1CCN(Cc2ccc3c(c2)c2ccccc2n3CC)CC1 | – | active: 13 µM
37 | COc1ccc(-c2ccc(F)cc2)cc1[C@H]1[C@H]2C=CC[C@@H](C)[C@@H]2C(=O)N1Cc1ccccc1 | – | active: 20.6 µM
38 | CN(C)c1ccc(-c2nc3n(n2)C(c2cccnc2)C2=C(CC(C)(C)CC2=O)N3)cc1 (centres undefined) | – | inconclusive [activator, partial curve, poor fit]
39 | CCn1c(=O)n(CC(=O)N2CCN(c3ccccc3F)CC2)c(=O)c2ccccc21 | inactive: -1.08% | –
40 | Cc1cc(Cl)c(OCCCCNC(C)(C)C)c(Br)c1 | – | inconclusive [activator, partial curve, poor fit]
41 | COc1ccccc1N1CCN(CCCCNC(=O)c2ccc3ccccc3c2)CC1 | inactive: -11.4% | –
42 | CCOc1ccc(NCc2cccn2-c2nnc(N3CCC(C(=O)NCCCN4CCCCC4CC)CC3)s2)cc1 (centres undefined) | – | inconclusive [activator, single point]
43 | Cc1oc(-c2ccc(F)cc2)nc1CN(Cc1ccccn1)CC1CCCO1 (centres undefined) | inactive: -39.8% | –
44 | COc1cc(/C=C2\SC(c3ccc(C)cc3)=NC2=O)cc(OC)c1O | – | inconclusive [activator, single point]

Row | Compound | activity, positive = re-replication | Potency
45 | Cc1c(C(=O)N2CCCc3ccccc32)oc2ccc(S(=O)(=O)N3CCOCC3)cc12 | – | inconclusive [activator, partial curve, poor fit]
46 | COCC(C)NC(=O)NC1(C(F)(F)F)Oc2ccc(Cl)cc2O1 (centres undefined) | – | inconclusive [activator, full curve, poor fit]
47 | COc1ccccc1-n1c(C)cc(/C=C2/C(=N)N3C(=NC2=O)SN=C3S(C)(=O)=O)c1C | – | inconclusive [activator, single point]
48 | Nc1ccccc1N1C(=O)c2cccc3cccc(c23)C1=O | – | active: 8.2 µM
49 | Cc1ccc(-c2[nH]ncc2/C=N/n2c(C)nc3ccccc3c2=O)cc1 | – | inconclusive [activator, single point]
50 | CC(C)(C)NC(=O)C(c1c[nH]c2ccccc12)N(C(=O)Cn1nnc(-c2ccc(F)cc2)n1)c1cccc(O)c1 (centres undefined) | – | inconclusive [activator, single point]
51 | C=C(C)COc1ccc(-c2nc(N)ncc2-c2ccc(Cl)cc2)c(O)c1 | – | inconclusive [activator, single point]
52 | COc1cccc(C(=O)N/N=C(\C)c2cccc(NC(=O)c3ccc(F)cc3)c2)c1OC | – | inconclusive [activator, single point]
53 | O=C(Cc1c(F)cccc1Cl)Nc1ccncc1 | – | inconclusive [activator, single point]
54 | Cc1ccc(Cn2c(N3CCN(C)CC3)nc3c2c(=O)[nH]c(=O)n3C)cc1 | – | inconclusive [activator, partial curve, poor fit]
55 | CC1(C)Cc2cccc(OCC(=O)OCC(=O)NCc3ccccc3)c2O1 | inactive: -2.5% | –
56 | Clc1ccc(-c2nnc3c4ccccc4nc(N4CCOCC4)n23)cc1Cl | – | inconclusive [activator, single point]
57 | O=C(c1cc([N+](=O)[O-])ccc1Cl)N1CCN(c2ccccn2)CC1 | inactive: -6.23% | –
58 | O=C(Nc1ncc(Cc2cccc(Cl)c2)s1)c1cccs1 | – | inconclusive [activator, partial curve, poor fit]
59 | COc1ccc(C(=O)NC2CC(C)(C)NC(C)(C)C2)cc1OC | – | inconclusive [activator, single point]
60 | CN1/C(=C/C2CC(=O)N(c3cccc4ccccc34)C2=O)C(C)(C)c2ccccc21 (centres undefined) | – | inconclusive [activator, full curve, poor fit]
61 | CCOC(=O)Cn1c(=O)cc(C)c2cccc(C)c21 | – | inconclusive [activator, single point]
62 | Cc1ccc(NC(=O)CSc2ccc(C(N)=O)cc2[N+](=O)[O-])cc1C | inactive: 2.27% [at 9.22 µM] | –
63 | CC1CCN(c2nc(-c3cccnc3)nc3scc(-c4ccccc4)c23)CC1 | – | inconclusive [activator, partial curve, poor fit]
64 | COc1ccc(OCC(=O)Nc2ccccc2-c2ccccc2)cc1 | – | inconclusive [activator, single point]
